# From the supplement of paper PMC8728848
# The other results are listed elsewhere or left out.
# Key:
# Assay in all cases: glycan array binding signal (z-score within array); higher = stronger binding
# Settings in all cases: glycan notation: IUPAC condensed, linker removed
# [1] = target: Fuc(a1-2)[Gal(a1-3)]Gal(b1-4)GlcNAc(b1-2)Man(a1-3)[Fuc(a1-2)[Gal(a1-3)]Gal(b1-4)GlcNAc(b1-2)Man(a1-6)]Man(b1-4)GlcNAc(b1-4)[Fuc(a1-6)]GlcNAc
# Summary of the method: (§1)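 From the Consortium for Functional Glycomics database, 3228 arrays were curated, keeping only those whose protein sequence was available. Binding is given as a within-array Z-score averaged across arrays sharing a protein sequence and across linkers. Negative Z-scores can be read as non-binding.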
# [2] = target: Fuc(a1-2)[Gal(a1-3)]Gal(b1-4)GlcNAc(b1-3)GalNAc
# Summary of the method: as §1
# [3] = target: Fuc(a1-2)[Gal(a1-3)]Gal(b1-4)GlcNAc(b1-3)[Fuc(a1-2)[Gal(a1-3)]Gal(b1-4)GlcNAc(b1-6)]GalNAc
# Summary of the method: as §1
# [4] = target: Fuc(a1-2)[Gal(a1-3)]Gal(b1-4)GlcNAc(b1-6)GalNAc
# Summary of the method: as §1
# [5] = target: Fuc(a1-2)[Gal(a1-3)]Gal(b1-4)[Fuc(a1-3)]Glc
# Summary of the method: as §1
# [6] = target: Fuc(a1-2)[Gal(a1-3)]Gal(b1-4)[Fuc(a1-3)]GlcNAc
# Summary of the method: as §1
# [7] = target: Fuc(a1-2)[Gal(a1-3)]Gal(b1-4)[Fuc(a1-3)]GlcNAc(b1-3)GalNAc
# Summary of the method: as §1
# [8] = target: Fuc(a1-2)[Gal(a1-4)]Gal(b1-4)GlcNAc
# Summary of the method: as §1
# [9] = target: Fuc(a1-2)[GalNAc(a1-3)]Gal
# Summary of the method: as §1
# [10] = target: Fuc(a1-2)[GalNAc(a1-3)]Gal(b1-3)GalNAc(a1-3)[Fuc(a1-2)]Gal(b1-4)GlcNAc
# Summary of the method: as §1
# [11] = target: Fuc(a1-2)[GalNAc(a1-3)]Gal(b1-3)GalNAc(b1-3)Gal(a1-4)Gal(b1-4)Glc
# Summary of the method: as §1
# [12] = target: Fuc(a1-2)[GalNAc(a1-3)]Gal(b1-3)GlcNAc
# Summary of the method: as §1
# [13] = target: Fuc(a1-2)[GalNAc(a1-3)]Gal(b1-3)GlcNAc(b1-2)Man(a1-3)[Fuc(a1-2)[GalNAc(a1-3)]Gal(b1-3)GlcNAc(b1-2)Man(a1-6)]Man(b1-4)GlcNAc(b1-4)GlcNAc
# Summary of the method: as §1
# [14] = target: Fuc(a1-2)[GalNAc(a1-3)]Gal(b1-3)GlcNAc(b1-2)Man(a1-3)[Fuc(a1-2)[GalNAc(a1-3)]Gal(b1-3)GlcNAc(b1-2)Man(a1-6)]Man(b1-4)GlcNAc(b1-4)[Fuc(a1-6)]GlcNAc
# Summary of the method: as §1
# [15] = target: Fuc(a1-2)[GalNAc(a1-3)]Gal(b1-3)GlcNAc(b1-3)GalNAc
# Summary of the method: as §1
# [16] = target: Fuc(a1-2)[GalNAc(a1-3)]Gal(b1-3)GlcNAc(b1-6)GalNAc
# Summary of the method: as §1
# [17] = target: Fuc(a1-2)[GalNAc(a1-3)]Gal(b1-4)Glc
# Summary of the method: as §1
# [18] = target: Fuc(a1-2)[GalNAc(a1-3)]Gal(b1-4)GlcNAc
# Summary of the method: as §1
# [19] = target: Fuc(a1-2)[GalNAc(a1-3)]Gal(b1-4)GlcNAc(b1-2)Man
# Summary of the method: as §1
# [20] = target: Fuc(a1-2)[GalNAc(a1-3)]Gal(b1-4)GlcNAc(b1-2)Man(a1-3)[Fuc(a1-2)[GalNAc(a1-3)]Gal(b1-4)GlcNAc(b1-2)Man(a1-6)]Man(b1-4)GlcNAc(b1-4)GlcNAc
# Summary of the method: as §1
# [21] = target: Fuc(a1-2)[GalNAc(a1-3)]Gal(b1-4)GlcNAc(b1-2)Man(a1-3)[Fuc(a1-2)[GalNAc(a1-3)]Gal(b1-4)GlcNAc(b1-2)Man(a1-6)]Man(b1-4)GlcNAc(b1-4)[Fuc(a1-6)]GlcNAc
# Summary of the method: as §1
# [22] = target: Fuc(a1-2)[GalNAc(a1-3)]Gal(b1-4)GlcNAc(b1-3)Gal(b1-4)GlcNAc
# Summary of the method: as §1
# [23] = target: Fuc(a1-2)[GalNAc(a1-3)]Gal(b1-4)GlcNAc(b1-3)Gal(b1-4)GlcNAc(b1-3)Gal(b1-4)GlcNAc
# Summary of the method: as §1
# [24] = target: Fuc(a1-2)[GalNAc(a1-3)]Gal(b1-4)GlcNAc(b1-3)GalNAc
# Summary of the method: as §1
# [25] = target: Fuc(a1-2)[GalNAc(a1-3)]Gal(b1-4)GlcNAc(b1-3)[Fuc(a1-2)[GalNAc(a1-3)]Gal(b1-4)GlcNAc(b1-6)]GalNAc
# Summary of the method: as §1
# [26] = target: Fuc(a1-2)[GalNAc(a1-3)]Gal(b1-4)GlcNAc(b1-6)GalNAc
# Summary of the method: as §1
# [27] = target: Fuc(a1-2)[GalNAc(a1-3)]Gal(b1-4)[Fuc(a1-3)]GlcNAc
# Summary of the method: as §1
# [28] = target: Fuc(a1-2)[GalNAc(a1-3)]Gal(b1-4)[Fuc(a1-3)]GlcNAc(b1-3)GalNAc
# Summary of the method: as §1
# [29] = target: Fuc(a1-2)[GalNAc(a1-4)]Gal(b1-4)GlcNAc
# Summary of the method: as §1
# [30] = target: Fuc(a1-2)[GalNAc(b1-3)]Gal
# Summary of the method: as §1
# Fuc(a1-3)GlcNAc = target: Fuc(a1-3)GlcNAc
# Summary of the method: as §1
# [31] = target: Fuc(a1-3)[Gal(b1-4)]Glc6S
# Summary of the method: as §1
# [32] = target: Fuc(a1-3)[Gal(b1-4)]GlcNAc
# Summary of the method: as §1
# [33] = target: Fuc(a1-3)[Gal(b1-4)]GlcNAc(b1-2)Man
# Summary of the method: as §1
# [34] = target: Fuc(a1-3)[Gal(b1-4)]GlcNAc(b1-2)Man(a1-3)[Fuc(a1-3)[Gal(b1-4)]GlcNAc(b1-2)Man(a1-6)]Man(b1-4)GlcNAc(b1-4)GlcNAc
# Summary of the method: as §1
# [35] = target: Fuc(a1-3)[Gal(b1-4)]GlcNAc(b1-2)Man(a1-3)[Fuc(a1-3)[Gal(b1-4)]GlcNAc(b1-2)Man(a1-6)]Man(b1-4)GlcNAc(b1-4)[Fuc(a1-6)]GlcNAc
# Summary of the method: as §1
# [36] = target: Fuc(a1-3)[Gal(b1-4)]GlcNAc(b1-3)Gal(b1-3)[Fuc(a1-4)]GlcNAc
# Summary of the method: as §1
binder,measurement,setting,value
FGFR2-Fc (protein) MVNVTDAISSGDDEDDTDGAEDFVSENSNNKRAPYWTNTEKMEKRLHAVPAANTVKFRCPAGGNPMPTMRWLKNGKEFKQEHRIGGYKVRNQHWSLIMESVVPSDKGNYTCVVENEYGSINHTYHLDVVERSPHRPILQAGLPANASTVVGGDVEFVCKVYSDAQPHIQWIKHVEKNGSKYGPDGLPYLKVLKHSGINSSNAEVLALFNVTEADAGEYICKVSNYIGQANQSAWLTVLPKQQAPGREKEITASPDYLETRPLEQKLISEEDLAANDILDYKDDDDKV,glycan array binding signal (z-score),[1],0.248
same,glycan array binding signal (z-score),[2],0.523
same,glycan array binding signal (z-score),[3],-0.181
same,glycan array binding signal (z-score),[4],-0.635
same,glycan array binding signal (z-score),[5],-0.308
same,glycan array binding signal (z-score),[6],0.157
same,glycan array binding signal (z-score),[7],0.311
same,glycan array binding signal (z-score),[8],-0.441
same,glycan array binding signal (z-score),[9],0.136
same,glycan array binding signal (z-score),[10],-0.19
same,glycan array binding signal (z-score),[11],0.082
same,glycan array binding signal (z-score),[12],-0.081
same,glycan array binding signal (z-score),[13],-0.422
same,glycan array binding signal (z-score),[14],0.414
same,glycan array binding signal (z-score),[15],0.532
same,glycan array binding signal (z-score),[16],-0.753
same,glycan array binding signal (z-score),[17],0.258
same,glycan array binding signal (z-score),[18],-0.434
same,glycan array binding signal (z-score),[19],-0.039
same,glycan array binding signal (z-score),[20],0.034
same,glycan array binding signal (z-score),[21],-0.33
same,glycan array binding signal (z-score),[22],-0.564
same,glycan array binding signal (z-score),[23],-0.041
same,glycan array binding signal (z-score),[24],-0.332
same,glycan array binding signal (z-score),[25],-0.517
same,glycan array binding signal (z-score),[26],-0.19
same,glycan array binding signal (z-score),[27],-0.549
same,glycan array binding signal (z-score),[28],0.373
same,glycan array binding signal (z-score),[29],-0.017
same,glycan array binding signal (z-score),[30],-0.186
same,glycan array binding signal (z-score),Fuc(a1-3)GlcNAc,-0.323
same,glycan array binding signal (z-score),[31],0.766
same,glycan array binding signal (z-score),[32],-0.162
same,glycan array binding signal (z-score),[33],0.175
same,glycan array binding signal (z-score),[34],-0.403
same,glycan array binding signal (z-score),[35],0.482
same,glycan array binding signal (z-score),[36],-0.308
